Results published in article PMC4336329 (PLoS ONE, 2015).
About 2,200 (0.71%) of roughly 310,000 compounds showed an effect of 50% or more. Effects have a minus sign here. This is one part of the list.

biological target: human ether-à-go-go-related gene (hERG) potassium channel (human, UniProt Q12809); assay: primary screen, population patch clamp on CHO cells stably expressing hERG
Sequence (Q12809 whole entry, looked up): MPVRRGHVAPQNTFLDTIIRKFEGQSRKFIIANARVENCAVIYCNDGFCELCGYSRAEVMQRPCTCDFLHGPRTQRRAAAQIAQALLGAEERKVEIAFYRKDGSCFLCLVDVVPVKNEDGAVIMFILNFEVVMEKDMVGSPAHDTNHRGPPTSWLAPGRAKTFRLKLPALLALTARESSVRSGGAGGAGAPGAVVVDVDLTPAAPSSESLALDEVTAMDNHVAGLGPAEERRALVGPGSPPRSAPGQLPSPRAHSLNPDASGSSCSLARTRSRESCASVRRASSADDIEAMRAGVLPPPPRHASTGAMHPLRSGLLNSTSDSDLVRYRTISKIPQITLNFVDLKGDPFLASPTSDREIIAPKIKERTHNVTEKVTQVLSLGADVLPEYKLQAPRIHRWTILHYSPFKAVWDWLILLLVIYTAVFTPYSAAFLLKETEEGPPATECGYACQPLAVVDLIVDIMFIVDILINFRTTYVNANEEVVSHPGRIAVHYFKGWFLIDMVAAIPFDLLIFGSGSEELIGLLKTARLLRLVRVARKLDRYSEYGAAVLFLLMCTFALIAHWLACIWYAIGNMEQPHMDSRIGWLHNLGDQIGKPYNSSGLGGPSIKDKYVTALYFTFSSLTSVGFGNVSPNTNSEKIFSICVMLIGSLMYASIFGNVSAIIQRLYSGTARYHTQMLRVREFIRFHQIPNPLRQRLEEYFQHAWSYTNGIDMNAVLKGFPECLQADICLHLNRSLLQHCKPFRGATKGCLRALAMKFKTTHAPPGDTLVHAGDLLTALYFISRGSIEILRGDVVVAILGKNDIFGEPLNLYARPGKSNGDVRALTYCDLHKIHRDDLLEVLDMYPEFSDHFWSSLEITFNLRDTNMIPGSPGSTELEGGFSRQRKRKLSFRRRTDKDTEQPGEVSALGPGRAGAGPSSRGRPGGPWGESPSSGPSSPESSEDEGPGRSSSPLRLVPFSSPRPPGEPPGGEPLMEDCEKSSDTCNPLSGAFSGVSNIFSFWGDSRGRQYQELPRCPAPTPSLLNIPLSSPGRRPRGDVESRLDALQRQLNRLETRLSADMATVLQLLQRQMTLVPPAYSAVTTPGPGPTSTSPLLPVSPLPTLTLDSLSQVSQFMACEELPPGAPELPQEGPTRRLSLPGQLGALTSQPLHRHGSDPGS

SMILES	hERG current change (%, negative = inhibition) at 1uM [%]
CC(C)C(=O)Nc1nnc(NC(=S)Nc2ccccc2)s1	13.4
Cc1ccc2nc(SCC(=O)N3CCN(c4ccccc4)CC3)[nH]c2c1	4.32
CC(=O)Nc1cccc(/C(C)=N/Nc2nc3ccccc3s2)c1	4.79
N#C/C(=C\c1cn(CC(=O)O)c2ccccc12)C(=O)NCc1ccccc1	9.65
CCC(=O)Nc1ccc(/C(C)=N\NC(=O)c2ccc(C)s2)cc1	9.67
CCC1(CC)C(=O)NC(=Nc2cccc(C(F)(F)F)c2)NC1=O	10.6
COc1cc(C(c2oc(CO)cc(=O)c2O)c2oc(CO)cc(=O)c2O)cc(OC)c1OC	10.1
O=C(Nc1cccc(Cl)c1)Nc1ccc2c(c1)C(=O)OC2	7.62
O=C(NCCNC(=O)c1cc(Cl)ccc1Cl)c1ccco1	-1.6
COc1ccc(C(=O)Nc2cc3c(cc2Cl)OCCCO3)cc1	16.3
CCCN1CCN(C(=O)Nc2ccc(OCC)cc2)CC1	6.8
Cl.Clc1cccc(OCCn2ccnc2)c1	19
Cc1cc(C)n(C(=O)CNC(=O)CCc2ccccc2)n1	5.25
COc1ccc(-n2c(SCC(=O)N3CCc4ccccc43)nnc2-c2c[nH]c3ccccc23)cc1	19.3
COc1ccc(C=C2C(=O)OC(C)(C)OC2=O)cc1OC	11.6
COc1ccc(CSCC(=O)Nc2ccccc2SC)cc1	6.3
CC(NC(=O)COc1cc(=O)n(C)c2ccccc12)c1ccc2c(c1)OCCO2 (centres unmarked)	10.1
CC(C)(C)C1CCC(=NNc2nc3ccccc3[nH]2)CC1 (centres unmarked)	11.2
CCOc1ccc(CN2CCN(C3CCC3)CC2CCO)cc1 (centres unmarked)	3.11

SMILES	hERG current change (%, negative = inhibition) at 1uM [%]
Cc1cccc(NC(=S)NCCc2ccccc2)c1C	9.44
CCCC(=O)OCCNc1cc(SCCC(=O)OC)c2nonc2c1[N+](=O)[O-]	8.34
O=C(C1CCCCC1)N1CCC(n2nnc3ccccc32)CC1	10.5
Cc1cc(=O)oc(C)c1C(=O)N1CCN(C(c2ccccc2)c2ccccc2)CC1	3.57
c1csc(-c2nnc(COc3ccc4c(c3)OCO4)o2)c1	7.83
CC(/C=C/c1ccc(C)o1)=C\C(=O)O	10.6
CCOc1ccccc1NC(=O)CSc1nnc(Cn2c(=O)sc3ccccc32)n1C	-37.3
C/C(=N\Nc1nc(N2CCCCCC2)nc(N2CCCCCC2)n1)c1ccccc1	12.8
C#CCn1cccc(C(=O)Nc2ccc(OC)cc2)c1=O	12.9
CC(C(=O)Nc1cccc(S(=O)(=O)N2CCOCC2)c1)N1CCN(C/C=C/c2ccccc2)CC1 (centres unmarked)	-32.5
CC1CS(=O)(=O)CCN1N=Cc1ccc([N+](=O)[O-])o1 (centres unmarked)	15.9
C=CCNC(=O)c1ccccc1NS(=O)(=O)c1ccc(OC)c(C(=O)N2CCOCC2)c1	14.9
Cc1c(Oc2ccc(C(F)(F)F)cc2[N+](=O)[O-])ccc2c3c(c(=O)oc12)CCC3	4.93
COc1cc(CCC(=O)Nc2c(C(=O)N3CCN(c4ccccc4OC)CC3)oc3ccccc23)on1	8.38
COc1cc(C2C(C(=O)c3ccco3)=C(O)C(=O)N2Cc2ccccc2)ccc1O (centres unmarked)	19.9
N#Cc1cc2c(nc1SCC(O)CS(=O)(=O)Cc1ccccc1)CCCC2 (centres unmarked)	-3.78
Cc1ccc(C(=O)COC(=O)CNC(=O)c2ccccc2)s1	0.568
O=C(COC(=O)C(Cc1ccccc1)NC(=O)c1ccco1)NC1CC1 (centres unmarked)	7.91
COc1ccc(CCNC(=O)c2ccc(CNS(=O)(=O)c3cccc(Cl)c3)cc2)cc1OC	6.6

SMILES	hERG current change (%, negative = inhibition) at 1uM [%]
CCC1(c2ccccc2)NC(=O)N(CC(=O)NC2(C#N)CCCCC2)C1=O (centres unmarked)	-0.853
O=C(NCc1ccc(/C=c2\sc3n(c2=O)CCN=3)o1)C(=O)Nc1ccccc1	-2.32
Nn1c(COc2ccccc2)nnc1SC(F)F	8.28
COc1ccc(S(=O)(=O)N2CCCCCC2)cc1C(=O)N(C)Cc1ccccc1F	6.9
O=S1(=O)CCO[C@H]2Cc3ccccc3[C@H]2N1Cc1cccc(F)c1	7.36
C/C=C/c1ccccc1OCc1ccc(C(=O)OC)o1	11.4
CCc1nn2c(=O)cc(COC(=O)c3ccc(SC)cc3OC)nc2s1	10.5
COc1ccc(S(=O)(=O)N2CCCCCC2)cc1C(=O)N(C)CC(=O)Nc1c(Cl)cccc1Cl	4.23
CCCCc1ccc(NC(=O)COc2ccc(C(=O)Nc3ccccc3OCC)cc2)cc1	13.9
COc1cccc(NC(=S)N(CCCN2CCCC(C)C2)Cc2cccs2)c1 (centres unmarked)	-30.2
Cc1ccc(NC(=O)c2ccccc2)cc1OC(=O)c1ccccc1	15
COc1ccc2nc(N3C(=O)C(O)=C(C(=O)c4ccco4)C3c3ccccc3OC)sc2c1 (centres unmarked)	4
C#CCNC(=O)C1=C[C@@H](c2csc3ccccc23)C[C@@H](OCc2ccc(CO)cc2)O1	8.8
O=c1cc(NC2CCCCCC2)[nH]c(=O)[nH]1	0.773
CCN(CC)CCn1cnc2c1c(=O)n(CCOC(=O)c1cc(OC)c(OC)c(OC)c1)c(=O)n2C.Cl	-21
CCc1cccc2c(/C=N/NC(=O)c3cccc(S(=O)(=O)Nc4ccccc4Cl)c3)c[nH]c12	16.1
CC(C)(O)C(=O)NN(C(=O)c1ccccc1)c1ccc2ccccc2c1	6.78
O=C(CCCCCNC(=O)c1ccccc1)C[N+](=O)[O-]	8.57
